Data on 22 molecules can be found in patent US20250136594A1 (Tango Therapeutics, Inc., priority 2022, published 2025).

Like-named read-outs stand apart in the source and are kept apart here.

The term IC50 denotes the midpoint of a concentration-inhibition curve. For orientation: IC90 means the concentration needed for an effect of 90%.

The subject of assay [1] is HAP1 MTAP-deleted cell line. Briefly: Viability assay, HAP1 MTAP-deleted cell line. It is filed as cell-based. The conditions noted are these: Homo sapiens.
Assay [2] has as its system SDMA in HAP1 MTAP-deleted (MTAP-null) cell line (PRMT5 inhibition). The assay can be described thus: SDMA in-cell western assay, HAP1 MTAP-deleted cell line. The conditions noted are these: for IC50 / IC90: Homo sapiens; for IC50: HAP1, read-out: Hap1 MTAP deleted IC50; for IC90: HAP1, read-out: Hap1 MTAP deleted IC90; for Hap1 MTAP intact/deleted ratio: ratio of SDMA IC50 in HAP1 MTAP-intact to HAP1 MTAP-deleted cell line.

Assay [3] concerns SDMA in HAP1 MTAP-intact cell line (PRMT5 inhibition). The assay can be described thus: SDMA in-cell western assay, HAP1 MTAP-intact cell line. The conditions noted are these: Homo sapiens, HAP1, read-out: Hap1 MTAP intact IC50.
Where [4] appears, read: viability assay, HAP1 MTAP-deleted cell line, read-out: Hap1 MTAP deleted viability IC50.
[5] abbreviates: HAP1, read-out: Hap1 MTAP deleted viability IC50.

In the case of `CCN(C(=O)C(=O)Nc1cnc(N)c2cn[nH]c12)C(C)c1ccc(S(F)(F)(F)(F)F)cc1` (stereo not shown) [Compound 140, N-(4-amino-1H-pyrazolo[4,3-c]pyridin-7-yl)-N′-ethyl-N′-[1-[4-(pentafluoro-sulfanyl)phenyl]ethyl]oxamide], the IC50 is under 100 nM in assay [1] (setting [4]), under 5 nM in assay [2] and 5 to 50 nM in assay [3]. For the same molecule, the IC90 in assay [2] was under 75 nM. Besides, the “Hap1 MTAP intact/deleted ratio” value in assay [2] is “C (IC50 ratio of less than 15 fold)”.
With `CC(C)CN(C(=O)C(=O)Nc1cnc(N)c2cn[nH]c12)[C@H](C)c1ccccc1` [Compound 129, (R)—N^1-(4-amino-1H-pyrazolo[4,3-c]pyridin-7-yl)-N^2-isobutyl-N^2-(1-phenylethyl)oxalamide], the IC50 in assay [1] (setting [4]) was under 100 nM. Moreover, in assay [2], the half-maximal inhibitory concentration (IC50) is under 5 nM, the IC90 was under 75 nM and the “Hap1 MTAP intact/deleted ratio” value was “A (IC50 ratio greater than or equal to 30 fold)”. Also, the IC50 in assay [3] is over 50 nM.
On to `C[C@H](c1ccccc1F)N(C)C(=O)C(=O)Nc1cnc(N)c2cn[nH]c12` [Compound 162, (R)—N^1-(4-amino-1H-pyrazolo[4,3-c]pyridin-7-yl)-N^2-(1-(2-fluorophenyl)ethyl)-N^2-methyloxalamide], for which the IC50 in assay [1] (setting [5]) is 100 to 1000 nM; in assay [3], over 50 nM.
In the case of `CC(c1ccc(C(F)(F)F)cc1)N(C)C(=O)C(=O)Nc1cnc(N)c2cn[nH]c12` (racemic) [Compound 85, rac-N^1-(4-amino-1H-pyrazolo[4,3-c]pyridin-7-yl)-N^2-methyl-N^2-(1-(4-(trifluoromethyl)phenyl)ethyl)oxalamide], the IC50 in assay [1] (setting [5]) was under 100 nM.
As for `Cc1ccccc1CN(C(=O)C(=O)Nc1cnc(N)c2cn[nH]c12)C(C)C` [Compound 133, N-(4-amino-1H-pyrazolo[4,3-c]pyridin-7-yl)-N′-isopropyl-N′-(o-tolylmethyl)oxamide], the IC50 in assay [1] (setting [4]) is under 100 nM. In assay [2], the IC50 is under 5 nM, the IC90 was under 75 nM and the “Hap1 MTAP intact/deleted ratio” value is on record as “A (IC50 ratio greater than or equal to 30 fold)”. Further, the IC50 in assay [3] is over 50 nM.
On the same counts, the results for `COC[C@H](C1CC1)N(Cc1ccc(C(F)(F)F)cn1)C(=O)C(=O)Nc1cnc(N)c(C)c1` [Compound 24, (S)—N^1-(6-amino-5-methylpyridin-3-yl)-N^2-(1-cyclopropyl-2-methoxyethyl)-N^2-((5-(trifluoromethyl)pyridin-2-yl)methyl)oxalamide] are under 100 nM, 5 to 50 nM, over 125 nM, “C (IC50 ratio of less than 15 fold)” and 5 to 50 nM.
The like results for `Nc1ncc(NC(=O)C(=O)N(Cc2ccc(F)cn2)Cc2ccccc2Cl)c2[nH]ncc12` [Compound 67, N-(4-amino-1H-pyrazolo[4,3-c]pyridin-7-yl)-N′-[(2-chlorophenyl)methyl]-N′-[(5-fluoro-2-pyridyl)methyl]oxamide] were, in that order, under 100 nM, under 5 nM, under 75 nM, “B (IC50 ratio greater than or equal to 15 fold but lower than 30 fold)” and over 50 nM.
On the same counts, the results for `NC(=O)c1cncc(NC(=O)C(=O)N(Cc2ccc(C(F)(F)F)cn2)[C@@H]2CCc3ccccc32)c1` [Compound 40, (R)—N^1-(5-carbamoylpyridin-3-yl)-N^2-(2,3-dihydro-1H-inden-1-yl)-N^2-((5-(trifluoromethyl)pyridin-2-yl)methyl)oxalamide] are under 100 nM, 5 to 50 nM, over 125 nM, “B (IC50 ratio greater than or equal to 15 fold but lower than 30 fold)” and over 50 nM.
Take `CN(Cc1c(F)cc(C(F)(F)F)cc1F)C(=O)C(=O)Nc1cnc(N)c2cn[nH]c12` [Compound 195, N-(4-Amino-1H-pyrazolo[4,3-c]pyridin-7-yl)-N′—[[2,6-difluoro-4-(trifluoromethyl)phenyl]methyl]-N′-methyl-oxamide]: in assay [1] (setting [4]), the IC50 was under 100 nM. In assay [2], the concentration for half-maximal inhibition (IC50) was under 5 nM, the IC90 is under 75 nM and the “Hap1 MTAP intact/deleted ratio” value is given as “A (IC50 ratio greater than or equal to 30 fold)”. Besides, the IC50 in assay [3] is over 50 nM.
On the same counts, the results for `Nc1ncc(NC(=O)C(=O)N(Cc2ccccn2)Cc2ccccc2Cl)c2[nH]ncc12` [Compound 142, N-(4-amino-1H-pyrazolo[4,3-c]pyridin-7-yl)-N′-[(2-chlorophenyl)methyl]-N′-(2-pyridylmethyl)oxamide] are under 100 nM, under 5 nM, under 75 nM, “B (IC50 ratio greater than or equal to 15 fold but lower than 30 fold)” and 5 to 50 nM.
Consider `CC[C@@H](C)N(Cc1ccccc1)C(=O)C(=O)Nc1cnc(N)c2cn[nH]c12` (stereo in doubt) [Compound 48, N-(4-amino-1H-pyrazolo[4,3-c]pyridin-7-yl)-N′-benzyl-N′-sec-butyl-oxamide], for which the IC50 in assay [1] (setting [4]) fell in the range of 100 to 1000 nM. In addition, in assay [2], the IC50 is under 5 nM, the IC90 is over 125 nM and the “Hap1 MTAP intact/deleted ratio” value is listed as “A (IC50 ratio greater than or equal to 30 fold)”. Moreover, the IC50 in assay [3] is over 50 nM.
In the case of `CCN(C(=O)C(=O)Nc1cnc(N)c2cn[nH]c12)[C@@H](C)c1ccc(C(F)(F)F)cc1F` [Compound 153, N-(4-Amino-1H-pyrazolo[4,3-c]pyridin-7-yl)-N′-ethyl-N′—[(1S)-1-[2-fluoro-4-(trifluoromethyl)phenyl]ethyl]oxamide], the results for the IC50 in assay [1] (setting [4]), in assay [2] and in assay [3] were 100 to 1000 nM, 5 to 50 nM and over 50 nM, respectively. For the same molecule, in assay [2], the IC90 was over 125 nM. The “Hap1 MTAP intact/deleted ratio” value in assay [2] is on record as “A (IC50 ratio greater than or equal to 30 fold)”.
As for `C[C@@H]1OCc2c(NC(=O)C(=O)N(C)[C@H](C)c3ccc(C(F)(F)F)cc3F)cnc(N)c21` (single isomer, unassigned) [Compound 196], in assay [1] (setting [4]), the IC50 was in the range of 100 to 1000 nM.
Take `Nc1ncc(NC(=O)C(=O)N(Cc2ccc(C(F)(F)F)cn2)[C@@H]2CCc3ccccc32)cc1C1CC1` [Compound 23, (R)—N^1-(6-amino-5-cyclopropylpyridin-3-yl)-N^2-(2,3-dihydro-1H-inden-1-yl)-N^2-((5-(trifluoromethyl)pyridin-2-yl)methyl)oxalamide]: the concentration for half-maximal inhibition (IC50) in assay [1] (setting [4]) is under 100 nM; in assay [2] it was 5 to 50 nM; in assay [3], over 50 nM. For the same molecule, the “Hap1 MTAP intact/deleted ratio” value in assay [2] is listed as “A (IC50 ratio greater than or equal to 30 fold)”.
As to `C[C@H](c1ccc(C(F)(F)F)cc1F)N(C)C(=O)C(=O)Nc1cnc(N)c2c1CO[C@@H]2C` [Compound 197], the IC50 in assay [1] (setting [4]) is over 1000 nM.
As for `Cc1cc(NC(=O)C(=O)N(Cc2ccc(C(F)(F)F)cn2)C(C)C(C)C)cnc1N` (stereo not shown) [Compound 46, N-(6-amino-5-methyl-3-pyridyl)-N′-(1,2-dimethylpropyl)-N′-[[5-(trifluoromethyl)-2-pyridyl]methyl]oxamide], the IC50 in assay [1] (setting [4]) is under 100 nM. Also, in assay [2], the IC50 was in the range of 5 to 50 nM, the IC90 is over 125 nM and the “Hap1 MTAP intact/deleted ratio” value is “C (IC50 ratio of less than 15 fold)”. Also, in assay [3], the IC50 is 5 to 50 nM.
On to `COc1ncc(NC(=O)C(=O)N(Cc2ccc(C(F)(F)F)cn2)CC(C)C2CC2)cc1C(N)=O` (stereo not shown) [Compound 47, N-(5-carbamoyl-6-methoxy-3-pyridyl)-N′-(2-cyclopropylpropyl)-N′-[[5-(trifluoromethyl)-2-pyridyl]methyl]oxamide], for which the IC50 in assay [1] (setting [4]) was 100 to 1000 nM; in assay [2], under 5 nM; in assay [3], over 50 nM. For the same molecule, the IC90 in assay [2] is over 125 nM. In addition, the “Hap1 MTAP intact/deleted ratio” value in assay [2] was “A (IC50 ratio greater than or equal to 30 fold)”.
As for `CC(=O)Nc1cccc(CN(Cc2ccccc2)C(=O)C(=O)Nc2cnc(N)c3cn[nH]c23)c1` [Compound 161, N′-[(3-acetamidophenyl)methyl]-N-(4-amino-1H-pyrazolo[4,3-c]pyridin-7-yl)-N′-benzyl-oxamide], the IC50 in assay [1] (setting [4]) was under 100 nM. Moreover, in assay [2], the IC50 was under 5 nM, the IC90 was under 75 nM and the “Hap1 MTAP intact/deleted ratio” value is “A (IC50 ratio greater than or equal to 30 fold)”. Besides, the IC50 in assay [3] is over 50 nM.
Consider `C[C@H](c1ccc(C(F)(F)F)cc1)N(C)C(=O)C(=O)Nc1cnc(N)c2cn[nH]c12` [Compound 78, (R)—N^1-(4-amino-1H-pyrazolo[4,3-c]pyridin-7-yl)-N^2-methyl-N^2-(1-(4-(trifluoromethyl)phenyl)ethyl)oxalamide], for which the IC50 in assay [1] (setting [5]) was under 100 nM.
In the case of `C[C@@H](c1ccc(C(F)(F)F)cc1)N(C)C(=O)C(=O)Nc1cnc(N)c2cn[nH]c12` [Compound 53, (S)—N^1-(4-amino-1H-pyrazolo[4,3-c]pyridin-7-yl)-N^2-methyl-N^2-(1-(4-(trifluoromethyl)phenyl)ethyl)oxalamide], the IC50 in assay [1] (setting [5]) lay within 100 to 1000 nM.
In the case of `Nc1ncc(NC(=O)C(=O)N(Cc2ccc(F)cc2)Cc2ccc(F)cc2)c2[nH]ncc12` [Compound 44], in assay [2], the IC50 was under 5 nM, the IC90 is under 75 nM and the “Hap1 MTAP intact/deleted ratio” value was “A (IC50 ratio greater than or equal to 30 fold)”. For the same molecule, the IC50 in assay [3] was over 50 nM.
Consider `C[C@H](c1ccc(F)cc1)N(C)C(=O)C(=O)Nc1cnc(N)c2cn[nH]c12` [Compound 144, (R)—N^1-(4-amino-1H-pyrazolo[4,3-c]pyridin-7-yl)-N^2-(1-(4-fluorophenyl)ethyl)-N^2-methyloxalamide], for which the IC50 in assay [1] (setting [5]) was under 100 nM; in assay [3] it was over 50 nM.
